B1: CPEB3 Ribozyme (parent)
chain: UAACAGGGGGCCACAGCAGAAGCGUUCACGUCGCAGCCCCUGUCAGAUUCUGGUGAAUCUGCGAAUUCUGCUGUAUAUCUC

Read counts are not given, so values of variants with three or more changes are uncertain.

The values that follow come from the RNAGym collection of RNA variant scans (doi:10.1093/nar/gkz1192).

The variants in the series derive from B1. The experiment in a line: self-cleavage, relative activity (ratio to wild type); higher = more cleavage; in vitro, sequencing. A digest of the protocol:
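CPEB3 self-cleaving ribozyme mutant libraries were made by rounds of error-prone PCR, barcoded, and transcribed in vitro with T7 RNA polymerase for 5 hours at 37°C. Cleavage occurred during transcription and a 15 min DNase I step before EDTA stop. RNAs were reverse transcribed with template switching and Illumina-sequenced, with DNA sequencing mapping barcodes to variants. Relative activity is the variant's cleaved/total read fraction divided by wild type's (minimum 5 reads), averaged across three batches.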
In the case of A13U U26C G53U, the self-cleavage worked out at 0.68.
As to A15G A18U U25A C29U U31A A45G U67A, the self-cleavage was 0.05.
On to A13U C62U U67C, for which the self-cleavage amounted to 0.26.
For A13U G30A A75G, the self-cleavage is 0.07.
For A15C U31C A56G U80A the value was 0.33; for A13U U43C A45G U48C A56G, 0.48; for A15G A18G C32U A35G, 0.1.
For A15G A45G A64U U76A the value was 0.38; for A13U U31A U60C U74A, 0.23.
For A13U U43C U72C the value was 0.72.
With A15G A21G U43C, the self-cleavage was found to be 0.4.
Take A15G A18G C40U A57G U58A A65G: the self-cleavage was 0.07.
With A13U A57U U67C U78C, the self-cleavage amounted to 0.23.
For the variant A15C A20G U51A A65G, the self-cleavage came out at 0.16.
For C14U U41C A56G A57G the value was 0.49.
As to A13U A64G U67A, the self-cleavage worked out at 0.48.
As to A15G A28G U66C A75G, the self-cleavage turned out to be 0.19.
As to A15G A18G G24A A57C, the self-cleavage came to 0.2.
A13U C37A A57G: the self-cleavage came to 0.17.
Regarding A13U U31C U58A U69C, the self-cleavage was found to be 0.2.
As to A15G A20G G55A U72C, the self-cleavage worked out at 0.76.
For the variant A15G A18U U60A A75U, the self-cleavage worked out at 0.17.
With C14U U25C A35U U41A, the self-cleavage came out at 0.16.
Turning to A13U U26C U31A, the self-cleavage came to 0.18.
With A15G A20G G36A, the self-cleavage was 0.41.
As to A15G A20U A21U G36A A47G A77G, the self-cleavage was 0.18.
A15G A45G U51C A77G: the self-cleavage is 0.46.
Regarding A15G A35U A45G, the self-cleavage is 0.5.
For A13U U26A A64G U72C U74A, the self-cleavage is 0.63.
Regarding A13U G30A G33U U60A, the self-cleavage was determined as 0.06.
For the variant A13U U26A A45G A56G, the self-cleavage was determined as 0.57.
In the case of A13U U31C U43A U54A U67C U74C, the self-cleavage amounted to 0.16.
In the case of A13U A47G U51A, the self-cleavage was 1.02.
A13U A45G U60C A64G: the self-cleavage worked out at 1.13.
As for A13U C38U A65G, the self-cleavage is 0.2.
For C14A U54C G63A C68A U72C the value was 0.23; for A15C G52A U60C, 0.28.
Turning to A13U A45U A47G G70A A77G, the self-cleavage stood at 0.17.
Regarding A15G A18U U54C, the self-cleavage was found to be 0.18.
For C14U C40U A64U G70A U72G the value was 0.14; for A13U U25C C32U C40G U43C U74C U76C, 0.04; for A13U U69C U72C U80C, 0.5.
As to A15C A45U U48C U54A A75U, the self-cleavage was 0.08.
A15G A18G A21U G33A C40A U54C A64G: the self-cleavage was found to be 0.22.
As to A15G A18G U25C C39U U67C U69A, the self-cleavage worked out at 0.11.
For the variant A15G A45G U49G, the self-cleavage was determined as 0.13.
Consider A13U U31C A75G, for which the self-cleavage came out at 1.
For C14A A15G U60C the value was 0.32; for A13U A56G A77U U78A, 0.91; for A15G A20U A65G U69A U72C, 0.13.
Turning to C14U A15G A35G, the self-cleavage was 1.23.
In the case of A13U U31C U48G A64U U69C, the self-cleavage turned out to be 0.33.
For C14U U48C U72C the value was 0.72; for A13U C39U U43A A57U U58C, 0.14.
On to A13U G16A U43C U80C, for which the self-cleavage was determined as 0.15.
In the case of A15C C38U A57G U58C, the self-cleavage was determined as 0.11.
For the variant A15G A28G U43C A65G U69A, the self-cleavage was determined as 0.04.
In the case of C14U U66C U69C U72G, the self-cleavage is 0.25.
Take C14U A35G U60C: the self-cleavage stood at 1.28.
For A13U C17U U76C the value was 0.69; for A13U A45U A56U U74C U76C, 0.22; for C14U A28G A57G, 0.72.
Consider A13U U26C C38G U49A U72C, for which the self-cleavage was determined as 0.06.
A13U U43C U49C A56G U80C: the self-cleavage is 0.89.
Consider A13U U26C A35G U58C, for which the self-cleavage was determined as 0.67.
For C14U A20G U67C A75C the value was 1.09; for A13U U26C G33C A75G, 0.12.
Take A13U U25C G33A A56U: the self-cleavage stood at 0.1.
For the variant A15G A45U G46C, the self-cleavage is 0.39.
Turning to A15C U26A U41A U43C, the self-cleavage was found to be 0.08.
As for A13U U43G U51C U58A, the self-cleavage turned out to be 0.11.
Turning to A15G A20G C23G A28C A56G, the self-cleavage stood at 0.14.
Under A13U A45G U51A U58C stands 0.2; under C14U U43C A45U U51C, 0.12.
Under C14A A18U A56U U66C stands 0.08; under A13U A57G U80C, 1.09; under C14A A15U U31A U41C, 0.44.
For A13U C14U U48C A64G, the self-cleavage is 0.41.
For the variant A15G A21U U69A A77U U78A, the self-cleavage came to 0.06.
For C14A A45G U51A A56G, the self-cleavage stood at 0.27.
Regarding A13U G42A U66C U76A U80C, the self-cleavage turned out to be 0.09.
Under A13U U31A C38U G61A U72C U74A C79A stands 0.23.
Under A13U U26A U31A U49C A57G U60C stands 0.08.
